# Experimental data: paper PMC12040169 (PLOS Biology, 2025)
# The other results are listed elsewhere or left out.
# Test system: T1, C. trachomatis L2/434/Bu expressing GFP (CTL2-GFP)
# T1 construct: L2/434/Bu GFP intracellular growth in HeLa cells
# Set-up: species or system HeLa; C. trachomatis total inclusion area by high-content imaging, normalised to DMSO
# Conditions: total inclusion area; 28.5 h, 10 µM; inhibitor
# How it was run: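 Imaging read-out: GFP inclusions and Hoechst nuclei captured by high-content imaging after fixation. Inclusion area/number = chlamydial growth; nuclei count = host cell viability. MIC calculated per earlier method.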
row,SMILES,% of control remaining
1,O=C1Nc2ccc(/C=C/c3ccccc3)cc2C(=O)N2CC[C@H](NC(=O)N3CCOCC3)[C@@H]12 [CBK289344],82.6744
2,CCCCC1CCC(c2noc(-c3ccc(F)cc3)n2)CC1 (stereo not drawn) [CBK027363],41.4387
3,COc1ccc([N+](=O)[O-])c(N2CCOC3(CCN(C(=O)OCc4ccccc4)CC3)C2)n1 [CBK161117T],92.2978
4,CC(C)NC(=O)c1sc2ccccc2c1C1CN(Cc2ccc3ncccc3c2)CCO1 (stereo not drawn) [CBK285930],98.2199
5,CC(C)(O)c1cc(CC2(NCc3ccc(Cl)cc3)COC2)no1 [CBK289254],117.794
6,O=C(O)CC1C(=O)NCCN1Cc1cccc(C(F)(F)F)c1 (stereo not drawn) [CBK269958],102.287
7,CC(=O)Nc1ccc(S(=O)(=O)N2CCN(CCO)CC2)cc1 [CBK262196],108.942
8,Cc1noc(C)c1CC(=O)Nc1cccc(CN2CCCCCC2)c1 [CBK281407],58.2929
9,Cc1cc(C)n2c(SCC(C)(C)NS(=O)(=O)c3ccccc3)nnc2n1 [CBK268369],101.194
10,CCN(C(C)COC)S(=O)(=O)c1cccc(Cl)c1Cl (stereo not drawn) [CBK305146],76.5011
11,COc1cccc(NC(=O)c2ccc(NC(=O)CCCC(=O)O)cc2)c1 [CBK287137],88.9134
12,COc1ccccc1CCNC(=O)c1cnccn1 [CBK268147],65.4885
13,O=C(O)CCNc1ccc(Br)cc1C(=O)O [CBK087259],101.059
14,Cc1cc(-c2ccc(=O)n(CCNC(=O)C3CCCCC3)n2)c(C)o1 [CBK284522],89.142
15,CCc1nnc(N/N=C/c2ccc(OCc3ccc(F)cc3Cl)c(OC)c2)n1N [CBK278173C],98.3644
16,CCCn1cnc2cc(NC(=O)Cn3cc(C(=O)NC4CCCCC4)ccc3=O)ccc21 [CBK286098],97.4929
17,Cc1c(C(=O)N(C)Cc2cccn2C)[nH]c2ccccc12 [CBK283270],84.5644
18,CN(C)c1ccc(-c2ccnc3nc(N)ccc23)cc1 [CBK067640],76.414
19,Cc1sc2[nH]c(CCC(=O)N3CCCC(C)CC3)nc(=O)c2c1C (stereo not drawn) [CBK305807],38.7735
20,COc1ccc(C(=O)C2=C(O)C(=O)N(Cc3cccnc3)C2c2ccc(OC)cc2OC)c(C)c1 (stereo not drawn) [CBK264928],104.897
21,COc1ccc2[nH]cc(CCNC(=O)[C@H](CC(C)C)NC(C)=O)c2c1 [CBK116210],113.808
22,CCOC(=O)C1CCN(C(=O)c2cccnc2NCc2ccc3c(c2)OCO3)CC1 [CBK160106],64.2021
23,CSc1nsc(SCC(=O)c2ccc3c(c2)OCCO3)n1 [CBK268904],103.602
24,CC(=O)Nc1ccccc1/C=C/c1ccc2c(C)cc(C)c(O)c2n1 [CBK261937],66.5026
25,O=C(N[C@@H](Cn1cc(F)c(=O)[nH]c1=O)C(=O)O)C1CCCCC1 [CBK289661],101.837
26,COc1ccc(CC(=O)N2CCN(C(C)c3nc4ccccc4s3)CC2)cc1F (stereo not drawn) [CBK297733],90.0355

row,SMILES,% of control remaining
1,COC(=O)c1ccc(N2CCN(C)CC2)c([N+](=O)[O-])c1 [CBK264341],108.452
2,CN1CCC(COC(=O)Nc2cccnc2)CC1 [CBK138232],69.7719
3,Cc1ccc(S(=O)(=O)Nc2nnc(C(C)C)s2)cc1 [CBK045528],66.3932
4,CC(C)(C)c1ccccc1NC(=O)N(CCN)Cc1cc(F)cc(F)c1 [CBK046263C],81.0437
5,CN(CC(=O)Nc1cc2ccccc2c(N2CCNCC2)n1)C(=O)c1ccccc1 [CBK028421T],103.905
6,CC[C@H](Cn1c(=O)oc2ccccc21)NC(=O)Cc1cccs1 [CBK284537],101.207
7,COC(=O)[C@H]1CN(C(=O)c2cn(C)nc2C)C[C@@H]1c1ccccc1F [CBK283511],82.357
8,Cn1cc(-c2nccnc2OC2CCCCC2)cn1 [CBK107072],123.939
9,Cc1cc(OCC(C)C)ccc1C(=O)C1=C(O)C(=O)N(Cc2cccnc2)C1c1cccnc1 (stereo not drawn) [CBK264883],106.434
10,O=C(c1ccccn1)N1C2CCC1CC(O)(c1ccco1)C2 (stereo not drawn) [CBK284034],84.5045
11,COc1ccc(NC(=O)CC2NC(=O)NC2=O)cc1 (stereo not drawn) [CBK267279],89.1746
12,N#CCCN(Cc1ccco1)C(=O)c1cccc(NC(=O)C2CC2)c1 [CBK304014],83.0817
13,Cc1ccc2nc(-c3ccc(/N=C/c4ccc(/C=N/c5ccc(-c6nc7ccc(C)cc7s6)cc5)cc4)cc3)sc2c1 [CBK261661],102.999
14,CCCC/C=C/c1cnc2[nH]c(=O)n(Cc3ccc(S(N)(=O)=O)cc3)c2n1 [CBK064956],61.977
15,CNC(=O)c1ccc(-c2ccccc2OC)nc1N1CCOCC1 [CBK106210],100.41
16,O=[N+]([O-])c1ccc(OCCO)cc1 [CBK000628],101.469
17,CC1CN(C(=O)NC(=O)c2ccc(-c3csnn3)cc2)CC(C)O1 (stereo not drawn) [CBK017091],111.581
18,CCOC(=O)c1cnc2nc(N3CCOCC3)nn2c1N [CBK007371],0
19,Cc1ccc(NC(=O)CSc2nc3ccccc3c(=O)n2Cc2ccco2)cc1Cl [CBK265606],89.3772
20,Nc1ncnc(NCCCc2ccccc2)c1[N+](=O)[O-] [CBK267261],108.424
21,CCC(Sc1ccc2nnc(-c3ccc(C)cc3)n2n1)C(=O)O (stereo not drawn) [CBK287524],123.76
22,Cc1ccc(C(C)C)c(OCc2ccc(C(=O)Nc3ccc(S(N)(=O)=O)cc3C)o2)c1 [CBK265833],85.2141
23,COc1ccc(O)c(CN(C)CCN(C)C)c1 [CBK261854],100.204
24,O=C(COc1cccnc1)N1CCCc2ccccc21 [CBK200258],92.4746
25,O=C(NCCn1cccn1)N1CCC(Cc2ccc(F)cc2)CC1 [CBK304381],67.9488
